# Measurements from PubChem BioAssay AID1508642 (National Center for Advancing Translational Sciences (NCATS), 2021).
# In all, about 43,000 compounds went through this assay and about 200 (0.47%) were called active. Inconclusive results (about 12%) are left out. Calls come from the whole dose curve; as a rule, active = well fitted cell-killing curve with a large enough effect; inconclusive = small, poorly fitted or top-dose-only effect, or effect the other way; inactive = flat fitted curve, though single readings scatter. The list shows a part of the results.
# Experiment: Cell viability qHTS assay in S16 Pmp22-F2sN cells; note: nearly all actives have a fitted effect of over 65% in size
# Settings: S16 Pmp22-F2sN Schwann cells (luciferase reporters placed in the Pmp22 gene) viability, CellTiter-Glo, 24 h; series mostly up to 57.5 µM; activity change, negative = cytotoxicity: at the top concentration
# In short: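 Seed 500-1,000 S16 Pmp22-F2sN cells per well in phenol-red-free DMEM with 10% heat-inactivated FBS; pin-add 23 nL compound; incubate 24 h at 37C; add CellTiter-Glo, wait 15 min protected from light; read luminescence.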
# % is set by controls: 0 for no effect and ±100 for the full control effect.
row,Compound,"activity change, negative = cytotoxicity"
1,COc1ccc(-n2c(SCC(=O)N3CCC(C)CC3)nc3c([nH]c4ccccc43)c2=O)cc1,inactive: 2.55%
2,CC1=C(C(=O)Nc2ccc(C)cc2C)C(c2sccc2C)n2ncnc2N1 (stereo not given),inactive: 6.86%
3,COc1ccc(CNC(=O)c2ccc3c(c2)N(Cc2ccccc2)C(=O)c2ccccc2S3(=O)=O)cc1,inactive: 0.704%
4,COc1ccc(-c2cc3nc(C4CCN(C(=O)OC(C)(C)C)CC4)c(C(=O)Nc4cc(Cl)cc(Cl)c4)cn3n2)cc1,inactive: 0.825%
5,CCOc1ccccc1N(C)C(=O)c1nn(-c2ccc(C)cc2)c(=O)c2c1c1ccccc1n2C,inactive: 3.92%
6,Cc1ccc2occ(CC(=O)Nc3nnc(C(C)C)s3)c2c1,inactive: -4.65%
7,O=C(Nc1nnc(S(=O)(=O)N2CCCc3ccccc32)s1)c1ccccc1Br,inactive: 2.15%
8,CCOc1cccc(C2c3c(oc4ccccc4c3=O)C(=O)N2c2nc(C)c(C(=O)OC)s2)c1 (stereo not given),inactive: -0.256%
9,CCCN(CCC)C(=O)Cn1c(=O)n(Cc2ccc(C(=O)NCCc3ccc(OC)c(OC)c3)cc2)c(=O)c2ccccc21,inactive: -0.0806%
10,CCCN(C(=O)c1cc2c(Cl)nc3ccccc3c2s1)c1cccc(C)c1,inactive: 19.9%
11,COc1cc(C(=O)NCC(c2cccnc2)N2CCN(c3ccc(F)cc3)CC2)cc(OC)c1OC (stereo not given),inactive: 10.3%
12,Cc1nn(-c2ccc3nncn3n2)c(C)c1CCC(=O)Nc1ccc(OC(F)(F)F)cc1,inactive: -3.34%
13,COc1cccc(-c2nnc3n(Cc4ccc(F)cc4)c(=O)c4ccccc4n23)c1,inactive: -23%
14,CC1=C(C(=O)Nc2ccc(C)cc2C)C(c2ccccc2C)n2ncnc2N1 (stereo not given),inactive: 4.31%
15,COc1ccc(CCNC(=O)NCc2noc3ccccc23)c(OC)c1,inactive: 2.85%
16,CN(C)c1ccc(C(CNS(=O)(=O)c2ccc(Cl)cc2)N2CCCC2)cc1 (stereo not given),inactive: -3.1%
17,COc1ccccc1CNC(=O)C1CCN(Cc2nc(-c3ccc(OC)c(OC)c3)oc2C)CC1,inactive: -1.13%
18,Cc1ccccc1CNC(=O)c1ccc(-n2c(C)cc3c2CCCC3)cc1,inactive: -4.93%
19,Cc1ccc(-c2cc3ncc(C(=O)c4cc([N+](=O)[O-])ccc4O)cn3n2)cc1,inactive: -19.5%
20,Cc1ccc(NC(=O)CCSCCc2ccccn2)cc1,inactive: 1.04%

row,Compound,"activity change, negative = cytotoxicity"
1,CCc1ccc(-n2c(C)nnc2SCc2nc(-c3ccc(OC)cc3)no2)cc1,inactive: -19.9%
2,O=C(Nc1ccc(Cl)cc1Cl)c1cc(S(=O)(=O)N2CCN(c3ccccc3F)CC2)ccc1F,inactive: -21.4%
3,CCCCN(C)CCNC(=O)c1cc(-c2cccnc2)nc2ccc(S(=O)(=O)N3CCC(C)CC3)cc12,inactive: -23.6%
4,Cc1ccn2c(c1)nc(=O)c1cc(S(=O)(=O)N3CCC(C)CC3)c(Cl)cc12,inactive: 15.6%
5,CN(Cc1ccccc1)c1nc(-c2ccc(F)cc2)cc(C(F)(F)F)n1,inactive: -5.31%
6,O=C(COc1ccccc1F)Nc1ccc(C(=O)OCc2cc(=O)n3nc(C4CC4)sc3n2)cc1,inactive: 2.66%
7,CCC(Oc1ccccc1F)C(=O)Nc1c(C(=O)c2ccccc2)oc2ccccc12 (stereo not given),inactive: 2.5%
8,O=C(Nc1ccc(Cl)cc1)C1CCN(c2nc3ccccc3n3cccc23)CC1,inactive: 5.56%
9,CC(C)(C)OC(=O)N1CCC(c2c(C(=O)NCc3ccc4c(c3)OCO4)cnn2-c2ccc(F)cc2F)CC1,inactive: -19.2%
10,CCC(C(=O)Nc1cccc(-c2cn3cccnc3n2)c1)c1ccccc1 (stereo not given),inactive: 4.34%
11,Cc1cccc(N2CCN(c3ncnc4onc(-c5ccc(F)cc5)c34)CC2C)c1 (stereo not given),inactive: -5.12%
12,Cc1ccc2c(=O)cc(C(=O)Nc3ccc(S(=O)(=O)N4CCCCC4)cc3)oc2c1C,inactive: -1.74%
13,COc1ccccc1Cc1nc2ccccc2nc1SCC(=O)NCc1ccc(F)cc1,inactive: 5.19%
14,COc1ccccc1Nc1nc2c(S(=O)(=O)c3ccc(C(C)C)cc3)nnn2c2ccsc12,inactive: -0.492%
15,Cc1coc2cc3oc(=O)c(CC(=O)NCCc4ccccc4F)c(C)c3cc12,inactive: 19.5%
16,O=C(Cn1c(=O)n(Cc2ccc(C(=O)NCc3ccccc3Cl)cc2)c(=O)c2ccccc21)Nc1ccc(F)cc1,inactive: 11.9%
17,CC(C)(C)C(=O)Nc1ccc(Cl)c(-c2nc3ccccc3[nH]2)c1,inactive: 15.4%
18,Cc1c(-c2ccccc2)n(-c2ccc(Cl)cc2)c2nc3c(c(=O)n(C)c(=O)n3C)n12,inactive: 12.2%
19,Cc1cc(C)c2oc(-c3ccc(NC(=O)c4cc(Br)ccc4Cl)cc3)nc2c1,inactive: 4.41%
20,Cc1ccc(NC(=O)CCc2nc3cccnc3n2-c2ccccc2)cc1,inactive: -0.224%

row,Compound,"activity change, negative = cytotoxicity"
1,Cc1ccc(CNc2ccc(-c3nc(-c4cccnc4)no3)cc2[N+](=O)[O-])cc1,inactive: 12.4%
2,CCN(CC)S(=O)(=O)c1ccc2c(c1)N(CC(=O)Nc1ccc(F)cc1F)C(=O)C1CCCN21 (stereo not given),inactive: -11.4%
3,COc1ccc(CNC(=O)CCCCCn2c(=O)[nH]c3ccccc3c2=O)cc1,inactive: 4.57%
4,Oc1cccc(-c2nc3ncccn3c2Nc2cccc(C(F)(F)F)c2)c1,inactive: -26.3%
5,CCOC(=O)c1[nH]c2ccccc2c1NC(=O)c1ccc(OC)c(OC)c1,inactive: -1.92%
6,COc1cc(NC(=O)Cn2c(C)cc(C)c(C#N)c2=O)cc(OC)c1,inactive: 4.79%
7,CCn1cc(C(=O)NCCc2ccc(Cl)cc2)c(=O)c2cc(S(=O)(=O)N3CCOCC3)ccc21,inactive: 1.85%
8,Cc1ccc(C)c(NC(=O)c2cc(S(=O)(=O)N3CCc4ccccc4C3)ccc2F)c1,inactive: 8.39%
9,COc1ccccc1CNC(=O)c1cc2sccc2n1Cc1ccc(F)cc1,inactive: -8.81%
10,COc1ccc(Br)cc1CNC(=O)CCCn1c(=O)c2cccn2c2cccnc21,inactive: -14.1%
11,CCc1cccc(NC(=O)Cn2c(C(=O)OC)cc3occc32)c1,inactive: 4.94%
12,COc1ccccc1NC(=O)Cn1c(=O)n(-c2ccccc2Cl)c(=O)c2sc3ccccc3c21,inactive: 8.11%
13,COc1ccc(-c2noc(-c3ccccc3OCC(=O)Nc3ccc(C(C)=O)cc3)n2)cc1,inactive: 18.7%
14,CCOc1ccc(NC(=O)c2cccc(N3CCCS3(=O)=O)c2)cc1,inactive: 9.63%
15,Cc1ccc(C)c(N2CCN(C(=O)CN3C(=O)COc4ccc(S(=O)(=O)N5CCOCC5)cc43)CC2)c1,inactive: 4.84%
16,COC(=O)c1cc2sccc2n1Cc1ccc(F)cc1,inactive: 5.92%
17,CCCCC(=O)Nc1nnc(S(=O)(=O)N2CCCCCC2)s1,inactive: -7.54%
18,O=C(Nc1ccc(F)c(Cl)c1)C1CCCN(c2ncnc3onc(-c4ccc(F)cc4)c23)C1 (stereo not given),inactive: -25.5%
19,CCC(=O)N1c2ccccc2CC1C(=O)NCCCN1CCN(c2ccccc2)CC1 (stereo not given),inactive: 18.3%
20,CCOc1ccc(CCNC(=O)c2cc3cc4ccc(OC)cc4nc3s2)cc1OCC,inactive: 4.89%
